Data on 58 compounds can be found in the supplement of paper PMC9446081.

Hit rate of the full screen: of about 39,000 compounds, about 220 (0.56%) showed activity. The list shows a part of the results.
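Note: static incubation at 37 °C against the wild-type strain, values averaged over two biological replicates.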

This test concerns Escherichia coli K-12 BW25113. In words: relative growth (OD600 normalised to plate interquartile mean) (fraction); higher = less growth inhibition, active = 0.2 or less. The settings on record: 50 µM; LB; incubation time: overnight (16-24 h).
Turning to `C[C@@H]1CCCCO[C@H](CN(C)C(=O)Nc2ccc(C(F)(F)F)cc2)[C@H](C)CN([C@H](C)CO)C(=O)c2cc(NS(C)(=O)=O)ccc2O1`, the relative growth was inactive: 0.968.

With `C[C@@H]1CN([C@@H](C)CO)C(=O)c2cc(NS(=O)(=O)c3ccc(Cl)cc3)ccc2O[C@H]1CN(C)Cc1ccc(Oc2ccccc2)cc1`, the relative growth is inactive: 1.02.

On to `Cc1ccc(S(=O)(=O)N(C)C[C@H]2Oc3ccc(NS(=O)(=O)c4cccs4)cc3CC(=O)N([C@@H](C)CO)C[C@@H]2C)cc1`, for which the relative growth was inactive: 0.998.

Regarding `CC(C)NC(=O)N(C)C[C@@H]1Oc2c(NS(=O)(=O)c3ccc(F)cc3)cccc2C(=O)N([C@@H](C)CO)C[C@@H]1C`, the relative growth was inactive: 0.987.

Take `C[C@H](CO)N1C[C@H](C)[C@@H](CN(C)C(=O)Nc2ccc(F)cc2)OCCCC[C@H](C)Oc2ccc(NC(=O)Nc3ccc(F)cc3)cc2C1=O`: the relative growth is inactive: 1.06.

For `CC1CC2C3CC(F)C4=CC(=O)C=CC4(C)C3(F)C(O)CC2(C)C1(O)C(=O)COC(=O)C(C)(C)C` (stereo not drawn), the relative growth is inactive: 1.13.

Regarding `CO[C@@H]1CN(C)C(=O)c2cc(NS(=O)(=O)c3cn(C)cn3)ccc2OC[C@H](C)N(CC2CC2)C[C@H]1C`, the relative growth was inactive: 1.01.

In the case of `C[C@@H]1CN([C@H](C)CO)C(=O)c2cccc(NC(=O)NC3CCCCC3)c2O[C@@H]1CN(C)S(C)(=O)=O`, the relative growth is inactive: 0.979.

`O=C(Nc1ccc2c(c1)[C@@H]1C[C@@H](CC(=O)N3CCc4ccccc4C3)O[C@H](CO)[C@@H]1O2)C1CCOCC1`: the relative growth is inactive: 1.

As to `COc1ccc(S(=O)(=O)Nc2ccc3c(c2)C(=O)N([C@H](C)CO)C[C@@H](C)[C@@H](CN(C)C(=O)Nc2ccccc2)OCCCC[C@@H](C)O3)cc1`, the relative growth is inactive: 0.983.

For `C[C@@H]1CN([C@@H](C)CO)C(=O)Cc2cc(NC(=O)c3ccncc3)ccc2O[C@@H]1CN(C)S(=O)(=O)c1cn(C)cn1`, the relative growth is inactive: 0.975.

Consider `C[C@H](CO)N1C[C@H](C)[C@@H](CN(C)C(=O)Nc2ccc(C(F)(F)F)cc2)Oc2ncc(-c3ccc(C#N)cc3)cc2C1=O`, for which the relative growth is inactive: 0.999.

As to `CC(C)NC(=O)N(C)C[C@H]1Oc2ccc(NC(=O)Cn3cnnn3)cc2C(=O)N([C@@H](C)CO)C[C@H]1C`, the relative growth is inactive: 0.996.

On to `C[C@@H]1CN([C@H](C)CO)C(=O)Cc2cc(NC(=O)Nc3ccc(C(F)(F)F)cc3)ccc2O[C@H]1CN(C)Cc1ccc2c(c1)OCO2`, for which the relative growth is inactive: 1.01.

In the case of `CC(=O)c1ccc(S(=O)(=O)N2[C@@H]3CC[C@@H](C3)[C@H]2c2nc3cccc(OCc4ccccc4)c3[nH]2)cc1`, the relative growth was inactive: 1.03.

For `COc1ccc2c3c(n(c2c1)C)[C@@H](CO)N(C[C@]13CCN(CC1)Cc1ccccc1F)C(=O)Nc1ccc(cc1)F`, the relative growth was inactive: 1.01.

Turning to `CNC(=O)C[C@H]1CC[C@@H]2[C@H](COC[C@H](O)CN2C(=O)c2ccccn2)O1`, the relative growth is inactive: 1.

On to `O=C(CN1CCOCC1)NCC[C@H]1CC[C@@H](NC(=O)c2ccccc2F)[C@H](CO)O1`, for which the relative growth is inactive: 1.02.

In the case of `C[C@@H]1CCCCO[C@@H](CN(C)Cc2ccncc2)[C@H](C)CN([C@@H](C)CO)C(=O)c2cc(NC(=O)CCC(F)(F)F)ccc2O1`, the relative growth is inactive: 1.09.

Take `C[C@@H]1CN([C@@H](C)CO)C(=O)c2cc(NS(=O)(=O)c3ccccc3)ccc2O[C@@H]1CN(C)CC1CC1`: the relative growth was inactive: 1.03.

As for `CCOC(=O)c1cc2c(=O)n(C)c(=O)n(C)c2[nH]c1=O`, the relative growth was inactive: 1.

Turning to `CC(=O)C1(O)CCC2C3CC(C)C4=CC(=O)C=CC4(C)C3(F)C(O)CC21C` (stereo not drawn), the relative growth is inactive: 1.08.

Regarding `C[C@H](CO)N1C[C@H](C)[C@H](CN(C)Cc2ccc(C(=O)O)cc2)Oc2ccc(NC(=O)Cn3cnnn3)cc2C1=O`, the relative growth is inactive: 0.998.

As to `C=CC(=O)Nc1ccccc1[C@@H](CCc1ccc(OC)c(OC)c1)OC(=O)[C@@H]1CCCCN1C(=O)C(=O)C(C)(C)CC`, the relative growth was inactive: 1.02.

With `CN(C)CCCNC(=O)C[C@@H]1CC[C@H]2[C@@H](COC[C@H](O)CN2S(=O)(=O)c2ccccc2)O1`, the relative growth is inactive: 1.02.

With `COc1ccc2c3c(n(c2c1)C)[C@H](CO)N(C[C@]13CCN(CC1)C(=O)c1ccccc1F)C(=O)Nc1ccccc1F`, the relative growth is inactive: 0.987.

`C[C@@H]1CN([C@H](C)CO)C(=O)c2cc(NS(=O)(=O)c3ccc(Cl)cc3)ccc2O[C@@H](C)CCCCO[C@H]1CN(C)C(=O)Nc1ccc2c(c1)OCO2`: the relative growth is inactive: 0.985.

Take `CN(C)CCCNC(=O)C[C@H]1CC[C@@H]2[C@@H](COc3ccc(NC(=O)c4ccccc4F)cc3C(=O)N2C)O1`: the relative growth is inactive: 1.01.

On to `C[C@H](CO)N1C[C@H](C)[C@H](CN(C)C(=O)Nc2cccc3ccccc23)Oc2ccc(NC(=O)C3CCCCC3)cc2CC1=O`, for which the relative growth was inactive: 0.994.

As for `C[C@@H]1CCCCO[C@@H](CN(C)C(=O)C2CCCCC2)[C@H](C)CN([C@@H](C)CO)C(=O)c2cc(NC(=O)C3CCCCC3)ccc2O1`, the relative growth was inactive: 0.99.

Take `Nc1ncnc2c1ncn2[C@H]1CCCO1`: the relative growth was inactive: 1.

In the case of `NC(=O)[C@@]1(CCS(=O)(=O)c2ccccc2)N=C(c2ccc(OCCCO)cc2)O[C@H]1c1ccccc1`, the relative growth is inactive: 0.996.

With `C[C@@H]1CN([C@H](C)CO)C(=O)c2cccc(NC(=O)Nc3ccc(C(F)(F)F)cc3)c2O[C@@H]1CN(C)Cc1ccc(Cl)c(Cl)c1`, the relative growth was inactive: 1.03.

`C[C@H]1CCCCO[C@H](CN(C)Cc2ccc(C(F)(F)F)cc2)[C@@H](C)CN([C@@H](C)CO)C(=O)c2cc(NC(=O)Nc3ccc(C(F)(F)F)cc3)ccc2O1`: the relative growth is inactive: 0.987.

As to `C[C@@H]1CCCCO[C@@H](CN(C)Cc2ccc(C(=O)O)cc2)[C@H](C)CN([C@@H](C)CO)C(=O)c2cc(NS(=O)(=O)c3ccc(Cl)cc3)ccc2O1`, the relative growth was inactive: 1.01.

As for `Cc1noc(C)c1S(=O)(=O)N(C)C[C@H]1OCCCC[C@H](C)Oc2ccc(N(C)C)cc2C(=O)N([C@@H](C)CO)C[C@@H]1C`, the relative growth is inactive: 0.926.

Regarding `COc1ccc(S(=O)(=O)N2C[C@@H](O)COC[C@H]3O[C@@H](CC(=O)NCCCN4CCOCC4)CC[C@@H]32)cc1`, the relative growth was inactive: 1.04.

`COc1ccc(NC(=O)Nc2ccc3c(c2)C(=O)N([C@H](C)CO)C[C@@H](C)[C@H](CN(C)C(=O)Nc2ccc(C(F)(F)F)cc2)OCCCC[C@@H](C)O3)cc1`: the relative growth is inactive: 1.07.

For `C[C@@H]1CCCCO[C@@H](CN(C)C(=O)CCC(F)(F)F)[C@H](C)CN([C@@H](C)CO)C(=O)c2cc(NC(=O)Nc3ccccc3)ccc2O1`, the relative growth is inactive: 0.987.

Take `Cc1nccnc1N1CCCCC1.O=S(=O)(O)O`: the relative growth is inactive: 1.03.

On to `Cc1noc(C)c1NC(=O)Nc1ccc2c(c1)C(=O)N([C@H](C)CO)C[C@H](C)[C@H](CN(C)C(=O)Nc1ccc3c(c1)OCO3)OCCCC[C@@H](C)O2`, for which the relative growth was inactive: 1.

As to `C[C@@H]1CN([C@@H](C)CO)S(=O)(=O)c2ccc(-c3ccccc3F)cc2O[C@@H]1CN(C)Cc1cncnc1`, the relative growth is inactive: 0.934.

As for `CC(=O)OC[C@H]1O[C@@](COC(C)=O)(O[C@H]2O[C@H](COC(C)=O)[C@@H](OC(C)=O)[C@H](OC(C)=O)[C@H]2OC(C)=O)[C@@H](OC(C)=O)[C@@H]1OC(C)=O`, the relative growth was inactive: 0.979.

On to `COc1cccc(NC(=O)N[C@H]2C=C[C@@H](CC(=O)N3CCOCC3)O[C@H]2CO)c1`, for which the relative growth was inactive: 0.897.

`CO[C@H]1CN(C)C(=O)c2ccc(NS(C)(=O)=O)cc2OC[C@H](C)N(C(=O)CN(C)C)C[C@H]1C`: the relative growth was inactive: 0.998.

With `COCCOC(=O)N1C(=O)[C@@]2(c3cc(C#CC4=CCCCC4)ccc31)[C@H](C(=O)N1CCN(c3ncccn3)CC1)[C@H]1C(=O)O[C@H](c3ccccc3)[C@H](c3ccccc3)N1[C@@H]2c1ccc(O)cc1`, the relative growth was inactive: 1.02.

For the compound `NC(=O)c1ccc[n+](C2OC(COP(=O)([O-])OP(=O)(O)OCC3OC(n4cnc5c(N)ncnc54)C(O)C3O)C(O)C2O)c1` (stereo not drawn), the relative growth was inactive: 1.07.

Regarding `CN1CCN(C2=Nc3cc(Cl)ccc3Nc3ccccc32)CC1`, the relative growth was inactive: 1.07.

With `Cc1noc(C)c1S(=O)(=O)Nc1ccc2c(c1)C(=O)N([C@H](C)CO)C[C@H](C)[C@H](CN(C)C)OCCCC[C@@H](C)O2`, the relative growth is inactive: 0.981.

As for `Nc1nc(=O)[nH]cc1NC(=O)c1ccccc1`, the relative growth is inactive: 0.917.

For `C[C@H]1CCCCO[C@H](CN(C)Cc2ccncc2)[C@@H](C)CN([C@@H](C)CO)C(=O)c2cc(NC(=O)Nc3ccccc3)ccc2O1`, the relative growth is inactive: 0.988.

Take `C[C@H]1CN([C@@H](C)CO)S(=O)(=O)c2ccc(C#Cc3ccccc3)cc2O[C@H]1CN(C)C(=O)Cc1ccccn1`: the relative growth was inactive: 0.994.

On to `C[C@H](CO)N1C[C@H](C)[C@H](CN(C)S(=O)(=O)c2ccccc2)Oc2ccc(NC(=O)CCN3CCOCC3)cc2CC1=O`, for which the relative growth was inactive: 1.02.

Regarding `C[C@@H]1CN([C@@H](C)CO)C(=O)c2cc(NC(=O)Cn3cnnn3)ccc2O[C@H]1CN(C)Cc1ccc(C(=O)Nc2ccccc2N)cc1`, the relative growth was inactive: 0.993.

In the case of `CC(C)NC(=O)Nc1ccc2c(c1)C(=O)N([C@H](C)CO)C[C@H](C)[C@H](CN(C)C(=O)Nc1ccc(C(F)(F)F)cc1)OCCCC[C@@H](C)O2`, the relative growth is inactive: 1.02.

Turning to `C[C@H]1CN([C@@H](C)CO)C(=O)c2cc(NC(=O)c3ccncc3)ccc2O[C@@H]1CN(C)Cc1ccc(C(=O)O)cc1`, the relative growth is inactive: 0.992.

On to `COc1ccc(cc1)CN1C[C@]2(CCN(CC2)S(=O)(=O)c2cn(cn2)C)c2c([nH]c3cc(ccc23)OC)[C@H]1CO`, for which the relative growth was inactive: 1.02.

`C[C@@H]1CCCCO[C@@H](CN(C)C(=O)CCC(F)(F)F)[C@H](C)CN([C@H](C)CO)C(=O)c2cc(NS(=O)(=O)c3cccs3)ccc2O1`: the relative growth was inactive: 0.951.
